From US20220125947A1

target: T cell receptor Vδ2 (TRDV2) on T cells in PBMCs (human), A0JD36; experiment: cell-based or functional assay
Sequence (A0JD36 20-115, stated change not applied): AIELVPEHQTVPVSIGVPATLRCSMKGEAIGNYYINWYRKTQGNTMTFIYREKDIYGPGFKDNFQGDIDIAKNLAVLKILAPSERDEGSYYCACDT

Row | CD25+ (Vg9+ cells), flow staining | CD71+ (Vg9+ cells), flow staining | Granzyme B, Luninex (supernatant) | IFNγ, Luninex (supernatant) | IL6, Luninex (supernatant) | TNFα, Luninex (supernatant) | Vg9 T cell %, flow staining | Binder
1 | 18.5% | 88% | 1250 | 410 | 528 | 333 | 3.2% | VG9B460 (antibody, human IgG1, lambda) heavy: EVQLVESGPGLVKPSETLSLTCTVSGGSISNYYWSWIRQPAGKGLGWIGRIYSSGITNYNPSLKSRVTMSVDTSKNQLSLKLSSVTAADTAVYYCAGIVGVKGAFAIWGQGTMVTVSS[human IgG1 constant region omitted here] light: QLVLTQPASVSGSPGQSITISCTGTSSDVGGYNYVSWYQQHPGKAPKLMIYEVSNRPSGVSNRFSGSKSGNTASLTISGLQAEDEADYYCSSYTSTSVVFGGGTKLTVLGQPKAAPSVTLFPPSSEELQANKATLVCLISDFYPGAVTVAWKADSSPVKAGVETTTPSKQSNNKYAASSYLSLTPEQWKSHRSYSCQVTHEGSTVEKTVAPTECS
2 | 26.4% | 84.9% | 1830 | 1040 | 273 | 1890 | 3.6% | VG9B452 (antibody, human IgG1, lambda) heavy: QVQLVESGPGLVKPSETLSLTCTVSGGSISNYYWSWIRQPAGKGLGWIGRIYSSGITNYNPSLKSRVTMSVDTSKNQLSLKLSSVTAADTAVYYCAGIVGVKGAFAIWGQGTMVTVSS[human IgG1 constant region omitted here] light: QSALTQPASVSGSPGQSITISCTGTSSDVGGYNYVSWYQQHPGKAPKLMIYEVSNRPSGVSNRFSGSKSGNTASLTISGLQAEDEADYYCSSYTSTSVVFGGGTKLTVLGQPKAAPSVTLFPPSSEELQANKATLVCLISDFYPGAVTVAWKADSSPVKAGVETTTPSKQSNNKYAASSYLSLTPEQWKSHRSYSCQVTHEGSTVEKTVAPTECS
3 | 11.6% | 80% | 230 | 44 | 30 | 64 | 3.5% | VG9B189 (antibody, human IgG1, lambda) heavy: EVQLVQSGGGLVKPGASLKLSCAASGFTFSNHGMSWVRQTSDKRLEWVASITRGGDTTYYPDNVKGRFTISRENAKNTLYLQMSSLKSDDTALYYCTRGPLTVGYAMDYWGQGTTVTVSS[human IgG1 constant region omitted here] light: QSVVTQPPSASGSPGQSVTISCTGTSSDVGGYNYVSWYQQHPGKAPKLMIYEVSKRPSGVPDRFSGSKSGNTASLTVSGLQAEDEADYYCNSYAGSNNFEVFGGGTKVTVLGQPKAAPSVTLFPPSSEELQANKATLVCLISDFYPGAVTVAWKADSSPVKAGVETTTPSKQSNNKYAASSYLSLTPEQWKSHRSYSCQVTHEGSTVEKTVAPTECS

target: T cell receptor (TCR) Vγ9 (TRGV9) (human), Q99603; experiment: cell-based or functional assay
Sequence (Q99603 21-122): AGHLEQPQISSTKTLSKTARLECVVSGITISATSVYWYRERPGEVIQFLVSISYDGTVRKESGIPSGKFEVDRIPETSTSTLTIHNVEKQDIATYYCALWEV

Row | Binder | CD25+ (Vg9+ cells) | CD71+ (Vg9+ cells) | Granzyme B (Luminex, supernatant) | IFNγ (Luminex, supernatant) | IL6 (Luminex, supernatant) | TNFα (Luminex, supernatant) | Vg9 T cell %
4 | VG9B64 (antibody, human IgG1, kappa) heavy: QVQLVESGPTLVKPTQTLTLTCTFSGFSLSISGVSVGWIRQPPGKALEWLALIYWNDDKRYSPSLQSRVTITKDTSKNQVVLTVTNMDSVDTATYYCVHSGQWLEGDAFDIWGQGTMVTVSS[human IgG1 constant region omitted here] light: [about 100 residues omitted here][about 120 residues omitted here] | 21.4% | 79.6% | 863 | 383 | 122 | 46 | 4%
5 | VG9B32 (antibody, human IgG1, kappa) heavy: EVQLVQSGGDLLQPGGSLRLSCAASGFTFSRYAMNWVRQAPGKGLEWVSFISGTGYTVYYADSVKGRFTISRDNAKNSLYLQMNSLRDEDTAVYYCARDQEPGFDYWGQGTLVTVSS[human IgG1 constant region omitted here] light: [about 100 residues omitted here][about 120 residues omitted here] | 19.1% | 87.3% | 68 | 44 | 11 | 10 | 5.1%
6 | VG9B57 (antibody, human IgG1, kappa) heavy: EVQLVESGGGLVKPGGSLRLSCAASGFTFSSHDMNWVRQAPGKGLGWVSSISSSSSYIFYADSVKGRFTISRDNAKNSLYLQMSSLRAEDTAVYYCARDLGVGVRDYYYYGMDVWGQGTMVTVSS[human IgG1 constant region omitted here] light: DIQMTQSPSAMSASVGDRVTITCRASQDITNYLAWFQQKPGKVPKRLIYAASSLQGGVPSRFSGSGSGTEFTLTISSLQPEDFSTYYCLQHDTYPYTFGQGTKLEIKRTVAAPSVFIFPPSDEQLKSGTASVVCLLNNFYPREAKVQWKVDNALQSGNSQESVTEQDSKDSTYSLSSTLTLSKADYEKHKVYACEVTHQGLSSPVTKSFNRGEC | 17.1% | 77.4% | 468 | 29 | 147 | 349 | 4%
7 | VG9B135 (antibody, human IgG1, kappa) heavy: QVTLKESGPTLVTPSQTLTLTCTFSGFSLTTYGVGVGWIRQPPGKALEWLALIYWNDDKRYYPSLNNRLTITKDTSKHLVVLTLTNMDPVDTATYYCAHDYDFWSGYFDYWGQGTLVTVSS[human IgG1 constant region omitted here] light: [about 200 residues omitted here] | 20.6% | 77.7% | 270 | 57 | 717 | 225 | 4.3%
8 | VG9B60 (antibody, human IgG1, kappa) heavy: QVQLVQSGAEVKKPGASVKVSCKASGYTFTGYYMHWVRQAPGQGLEWMGRINPNSGVTHYAQKFQGRVTMTRDTSISTAYMELSRLRSDDTAVYYCARGGSLVRGVISGLDYWGQGTTVTVSS[human IgG1 constant region omitted here] light: DIVMTQSPGTLSLSPGERATLSCRASQSFSGSYLAWYQQKPGQAPSLLIYGASSRATGIPDRFSGSGSGTDFTLTISRLEPEDFALYYCQQYGSSPPYTFGQGTKVEIKRTVAAPSVFIFPPSDEQLKSGTASVVCLLNNFYPREAKVQWKVDNALQSGNSQESVTEQDSKDSTYSLSSTLTLSKADYEKHKVYACEVTHQGLSSPVTKSFNRGEC | 9.1% | 73% | 912 | 280 | 269 | 2420 | 2.9%
9 | VG9B66 (antibody, human IgG1, kappa) heavy: EVQLVESGGGLVKPGGSLRLSCAASGFTFSTYTMNWVRQAPGKGLEWVSSISSSSFYMDYADSVKGRFTISRDNAKNSLSLLMNSLRAEDTAVYYCARDGDIVATIRGSFDYWGQGTMVTVSS[human IgG1 constant region omitted here] light: EIVLTQSPSSLSTSVGDRVTITCRASQDITNFLAWYQQKPGKLPKLLIYTASTLQSGVPSRFSGSASGPDFTLTISSLQPEDVATYYCQKYNSAPFTFGPGTKVEIKRTVAAPSVFIFPPSDEQLKSGTASVVCLLNNFYPREAKVQWKVDNALQSGNSQESVTEQDSKDSTYSLSSTLTLSKADYEKHKVYACEVTHQGLSSPVTKSFNRGEC | 25.4% | 84.6% | 470 | 162 | 145 | 405 | 3.8%
10 | VG9B21 (antibody, human IgG1, kappa) heavy: EVQLLESGGGLVKPGGSLRLSCAASGFSFSNYDMNWVRQAPRKGLEWVSSISSSSHYIYYADSLKGRFTISRDNAKNSLFLQMNSLRAEDTAVYYCARDRGVTTDYYYYALDVWGQGTMVTVSS[human IgG1 constant region omitted here] light: DIVMTQSPSSLSASVGDRVTITCRASQGIYNYLAWYQQKPGNVPKLLIYAASTLQSGVPSRFSGSGSGTDFSLTISSLQPEDFTTYYCQKYNRAPFTFGPGTKVDIKRTVAAPSVFIFPPSDEQLKSGTASVVCLLNNFYPREAKVQWKVDNALQSGNSQESVTEQDSKDSTYSLSSTLTLSKADYEKHKVYACEVTHQGLSSPVTKSFNRGEC | 27.5% | 91.8% | 3150 | 1660 | 459 | 3330 | 7.1%

Second part, the binder after the results:

Row | CD25+ (Vg9+ cells) | CD71+ (Vg9+ cells) | Granzyme B (Luminex, supernatant) | IFNγ (Luminex, supernatant) | IL6 (Luminex, supernatant) | TNFα (Luminex, supernatant) | Vg9 T cell % | Binder
11 | 8.1% | 81.9% | 1060 | 344 | 118 | 51 | 3% | VG9B152 (antibody, human IgG1, lambda) heavy: EVQLVESGGGLVRPGGSLRLSCEASGFTFSSYSMIWVRQAPGKGLEWVSSISSSSDYIYNADSVKGRFTISRDNAKNSLYLQMNSLRAEDTAVYYCARDWELLGFDCWGQGTTVTVSS[human IgG1 constant region omitted here] light: SYELMQPPSVSVSPGQTASITCSGDKLGDKYACWYQQKPGQSPVLVIYQHNKRPSGIPERFSGSNSGKTATLTISGTQAMDEADYYCQAWDSTTVVFGGGTKLTVLGQPKAAPSVTLFPPSSEELQANKATLVCLISDFYPGAVTVAWKADSSPVKAGVETTTPSKQSNNKYAASSYLSLTPEQWKSHRSYSCQVTHEGSTVEKTVAPTECS
12 | 18.7% | 80.6% | 585 | 195 | 194 | 190 | 3.2% | VG9B409 (antibody, human IgG1, kappa) heavy: EVQLVESGAEVKKPGASVKVSCKASGYTLTSYYMHWVRQAPGQGLEWMGIINPSGGSTSYAQKFQGRVTMTRDTSTSTVYMELSSLRSEDTAVYYCARGSYGWYFDLWGRGTLVTVSS[human IgG1 constant region omitted here] light: EIVLTQSPGTLSLSPGERATLSCRASQSVTSSYLAWYQQKPGQTPRLLIYGASSRATGIPDRISGSGSGTDFTLTVSRLEPEDFAVYYCQQYGSSPPYTFGQGTKLEIKRTVAAPSVFIFPPSDEQLKSGTASVVCLLNNFYPREAKVQWKVDNALQSGNSQESVTEQDSKDSTYSLSSTLTLSKADYEKHKVYACEVTHQGLSSPVTKSFNRGEC
